Assay results: patent US20230340048A1

B1: T22d35-Fc-IgG1-v1 (CC) (Fc fusion)
chain: IPPHVQKSVNNDMIVTDNNGAVKFPQLCKFCDVRFSTCDNQKSCMSNCSITSICEKPQEVCVAVWRKNDENITLETVCHDPKLPYHDFILEDAASPKCIMKEKKKPGETFFMCSCSSDECNDNIIFSEEYNTSNPDIPPHVQKSVNNDMIVTDNNGAVKFPQLCKFCDVRFSTCDNQKSCMSNCSITSICEKPQEVCVAVWRKNDENITLETVCHDPKLPYHDFILEDAASPKCIMKEKKKPGETFFMCSCSSDECNDNIIFSEEYNTSN[human IgG1 Fc and a few adjoining residues not spelt out]
B2: Protein 101 (Fc fusion)
chain: IPPHVQKSVNNDMIVTDNNGAVKFPQLCKFCDVRFSTCDNQKSCMSNCSITSICEKPQEVCVAVWRKNDENITLETVCHDPKLPYHDFILEDAASPKCIMKEKKKPGETFFMCSCSSDECNDNIIFSEEYNDMIVTDNNGAVKFPQLCKFCDVRFSTCDNQKSCMSNCSITSICEKPQEVCVAVWRKNDENITLETVCHDPKLPYHDFILEDAASPKCIMKEKKKPGETFFMCSCSSDECNDNIIFSEEYNTIPPHVQKSVNNDMIVTDNNGAV[human IgG1 Fc and a few adjoining residues not spelt out]
B3: Protein 107 (Fc fusion)
chain: IPPHVQKSVNNDMIVTDNNGAVKFPQLCKFCDVRFSTCDNQKSCMSNCSITSICEKPQEVCVAVWRKNDENITLETVCHDPKLPYHDFILEDAASPKCIMKEKKKPGETFFMCSCSSDECNDNIIFSEEYNTSNPDDNNGAVKFPQLCKFCDVRFSTCDNQKSCMSNCSITSICEKPQEVCVAVWRKNDENITLETVCHDPKLPYHDFILEDAASPKCIMKEKKKPGETFFMCSCSSDECNDNIIFSEEYNTSN[human IgG1 Fc and a few adjoining residues not spelt out]
B4: Protein 112 (Fc fusion)
chain: IPPHVQKSVNNDMIVTDNNGAVKFPQLCKFCDVRFSTCDNQKSCMSNCSITSICEKPQEVCVAVWRKNDENITLETVCHDPKLPYHDFILEDAASPKCIMKEKKKPGETFFMCSCSSDECNDNIIFSEEYNDMIVTDNNGAVKFPQLCKFCDVRFSTCDNQKSCMSNCSITSICEKPQEVCVAVWRKNDENITLETVCHDPKLPYHDFILEDAASPKCIMKEKKKPGETFFMCSCSSDECNDNIIFSEEYMIVTDNNGAV[human IgG1 Fc and a few adjoining residues not spelt out]
B5: Protein 96 (Fc fusion)
chain: IPPHVQKSVNNDMIVTDNNGAVKFPQLCKFCDVRFSTCDNQKSCMSNCSITSICEKPQEVCVAVWRKNDENITLETVCHDPKLPYHDFILEDAASPKCIMKEKKKPGETFFMCSCSSDECNDNIIFSEEYNTSNPDDNNGAVKFPQLCKFCDVRFSTCDNQKSCMSNCSITSICEKPQEVCVAVWRKNDENITLETVCHDPKLPYHDFILEDAASPKCIMKEKKKPGETFFMCSCSSDECNDNIIFSEEYNTSNPDNGAV[human IgG1 Fc and a few adjoining residues not spelt out]
B6: Protein 106 (Fc fusion)
chain: IPPHVQKSVNNDMIVTDNNGAVKFPQLCKFCDVRFSTCDNQKSCMSNCSITSICEKPQEVCVAVWRKNDENITLETVCHDPKLPYHDFILEDAASPKCIMKEKKKPGETFFMCSCSSDECNDNIIFSEEYPHVQKSVNNDMIVTDNNGAVKFPQLCKFCDVRFSTCDNQKSCMSNCSITSICEKPQEVCVAVWRKNDENITLETVCHDPKLPYHDFILEDAASPKCIMKEKKKPGETFFMCSCSSDECNDNIIFSEEYPHVQKSVNNDMIVTDNNGAV[human IgG1 Fc and a few adjoining residues not spelt out]
B7: Protein 113 (Fc fusion)
chain: IPPHVQKSVNNDMIVTDNNGAVKFPQLCKFCDVRFSTCDNQKSCMSNCSITSICEKPQEVCVAVWRKNDENITLETVCHDPKLPYHDFILEDAASPKCIMKEKKKPGETFFMCSCSSDECNDNIIFSEEYNTSNPDPHVQKSVNNDMIVTDNNGAVKFPQLCKFCDVRFSTCDNQKSCMSNCSITSICEKPQEVCVAVWRKNDENITLETVCHDPKLPYHDFILEDAASPKCIMKEKKKPGETFFMCSCSSDECNDNIIFSEEYNTSNPDPHVQKSVNNDMIVTDNNGAV[human IgG1 Fc and a few adjoining residues not spelt out]
B8: Protein 116 (Fc fusion)
chain: IPPHVQKSVNNDMIVTDNNGAVKFPQLCKFCDVRFSTCDNQKSCMSNCSITSICEKPQEVCVAVWRKNDENITLETVCHDPKLPYHDFILEDAASPKCIMKEKKKPGETFFMCSCSSDECNDNIIFSEEYNTSNPDPHVQKSVNNDMIVTDNNGAVKFPQLCKFCDVRFSTCDNQKSCMSNCSITSICEKPQEVCVAVWRKNDENITLETVCHDPKLPYHDFILEDAASPKCIMKEKKKPGETFFMCSCSSDECNDNIIFSEEYNTSNPDIPPHVQKSVNNDMIVTDNNGAV[human IgG1 Fc and a few adjoining residues not spelt out]
B9: Protein 129 (Fc fusion)
chain: IPPHVQKSVNNDMIVTDNNGAVKFPQLCKFCDVRFSTCDNQKSCMSNCSITSICEKPQEVCVAVWRKNDENITLETVCHDPKLPYHDFILEDAASPKCIMKEKKKPGETFFMCSCSSDECNDNIIFSEEYNDMIVTDNNGAVKFPQLCKFCDVRFSTCDNQKSCMSNCSITSICEKPQEVCVAVWRKNDENITLETVCHDPKLPYHDFILEDAASPKCIMKEKKKPGETFFMCSCSSDECNDNIIFGGGGSGGGGSGGGGSGGGGSGGGGSGGG[human IgG1 Fc and a few adjoining residues not spelt out]
B10: Protein 130 (Fc fusion)
chain: IPPHVQKSVNNDMIVTDNNGAVKFPQLCKFCDVRFSTCDNQKSCMSNCSITSICEKPQEVCVAVWRKNDENITLETVCHDPKLPYHDFILEDAASPKCIMKEKKKPGETFFMCSCSSDECNDNIIFSEEYNDMIVTDNNGAVKFPQLCKFCDVRFSTCDNQKSCMSNCSITSICEKPQEVCVAVWRKNDENITLETVCHDPKLPYHDFILEDAASPKCIMKEKKKPGETFFMCSCSSDECNDNIIFSEEYNTGGGGSGGGGSGGGGSGGGGSGG[human IgG1 Fc and a few adjoining residues not spelt out]
B11: Protein 131 (Fc fusion)
chain: IPPHVQKSVNNDMIVTDNNGAVKFPQLCKFCDVRFSTCDNQKSCMSNCSITSICEKPQEVCVAVWRKNDENITLETVCHDPKLPYHDFILEDAASPKCIMKEKKKPGETFFMCSCSSDECNDNIIFSEEYNDMIVTDNNGAVKFPQLCKFCDVRFSTCDNQKSCMSNCSITSICEKPQEVCVAVWRKNDENITLETVCHDPKLPYHDFILEDAASPKCIMKEKKKPGETFFMCSCSSDECNDNIIFSEEYNTSNPDVQKSVNNDMIVTDNNGAV[human IgG1 Fc and a few adjoining residues not spelt out]
B12: Protein 132 (Fc fusion)
chain: IPPHVQKSVNNDMIVTDNNGAVKFPQLCKFCDVRFSTCDNQKSCMSNCSITSICEKPQEVCVAVWRKNDENITLETVCHDPKLPYHDFILEDAASPKCIMKEKKKPGETFFMCSCSSDECNDNIIFSEEYNTSNPDDNNGAVKFPQLCKFCDVRFSTCDNQKSCMSNCSITSICEKPQEVCVAVWRKNDENITLETVCHDPKLPYHDFILEDAASPKCIMKEKKKPGETFFMCSCSSDECNDNIIFSEEYNTSNPDVQKSVNNDMIVTDNNGAV[human IgG1 Fc and a few adjoining residues not spelt out]
B13: Protein 133 (Fc fusion)
chain: IPPHVQKSVNNDMIVTDNNGAVKFPQLCKFCDVRFSTCDNQKSCMSNCSITSICEKPQEVCVAVWRKNDENITLETVCHDPKLPYHDFILEDAASPKCIMKEKKKPGETFFMCSCSSDECNDNIIFSEEYNTSNPDDNNGAVKFPQLCKFCDVRFSTCDNQKSCMSNCSITSICEKPQEVCVAVWRKNDENITLETVCHDPKLPYHDFILEDAASPKCIMKEKKKPGETFFMCSCSSDECNDNIIFSEEYNTIPPHVQKSVNNDMIVTDNNGAV[human IgG1 Fc and a few adjoining residues not spelt out]
B14: Protein 134 (Fc fusion)
chain: IPPHVQKSVNNDMIVTDNNGAVKFPQLCKFCDVRFSTCDNQKSCMSNCSITSICEKPQEVCVAVWRKNDENITLETVCHDPKLPYHDFILEDAASPKCIMKEKKKPGETFFMCSCSSDECNDNIIFSEEYNTSNPDDNNGAVKFPQLCKFCDVRFSTCDNQKSCMSNCSITSICEKPQEVCVAVWRKNDENITLETVCHDPKLPYHDFILEDAASPKCIMKEKKKPGETFFMCSCSSDECNDNIIFGGGGSGGGGSGGGG[human IgG1 Fc and a few adjoining residues not spelt out]
B15: Protein 135 (Fc fusion)
chain: IPPHVQKSVNNDMIVTDNNGAVKFPQLCKFCDVRFSTCDNQKSCMSNCSITSICEKPQEVCVAVWRKNDENITLETVCHDPKLPYHDFILEDAASPKCIMKEKKKPGETFFMCSCSSDECNDNIIFGGGGSGGGGSGGGGSGGGPQLCKFCDVRFSTCDNQKSCMSNCSITSICEKPQEVCVAVWRKNDENITLETVCHDPKLPYHDFILEDAASPKCIMKEKKKPGETFFMCSCSSDECNDNIIFSEEYNTSNPDNGAV[human IgG1 Fc and a few adjoining residues not spelt out]

What follows are binders tested against TGFβ1 (UniProt P01137) (assay: cell-based or functional assay).
UniProt P01137, sequence (P01137 279-390 limits assumed): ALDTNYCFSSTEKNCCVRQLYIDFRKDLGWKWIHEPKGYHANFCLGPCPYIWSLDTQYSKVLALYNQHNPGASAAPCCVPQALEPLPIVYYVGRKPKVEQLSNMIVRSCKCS

| Average IC50, A549 IL-11 release assay [pM] | Average IC50, A549/IL-11 release assay [pM] | Binder |
| --- | --- | --- |
| 2.89 | – | B1 |
| – | 6.75 | B2 |
| – | 8.06 | B3 |
| – | 15.7 | B4 |
| – | 6.47 | B5 |
| – | 3.27 | B6 |
| – | 2.19 | B7 |
| – | 2.44 | B8 |
| – | 15.2 | B9 |
| – | 7.09 | B10 |
| – | 5.71 | B11 |
| – | 5.99 | B12 |
| – | 4.79 | B13 |
| – | 20.2 | B14 |
| – | 39.5 | B15 |

What follows are binders tested against TGFβ3 (UniProt P10600) (assay: cell-based or functional assay).
UniProt P10600, sequence (P10600 301-412): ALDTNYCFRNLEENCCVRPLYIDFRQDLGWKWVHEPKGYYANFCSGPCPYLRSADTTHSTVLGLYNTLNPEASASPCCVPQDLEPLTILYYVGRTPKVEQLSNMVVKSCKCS

| Average IC50, A549 IL-11 release assay [pM] | IC50 Ratio TGFβ3:TGFβ1 (average ratio), A549 IL-11 release assay | IC50 ratio for TGFβ3:TGFβ1, representative experiment, A549/IL-11 release assay | Average IC50, A549/IL-11 release assay [pM] | IC50 Ratio TGFβ3:TGFβ1 (average ratio), A549/IL-11 release assay | Binder |
| --- | --- | --- | --- | --- | --- |
| 8.64 | 3.2 | 3.41 | – | – | B1 |
| – | – | 1.51 | 9.73 | 1.44 | B2 |
| – | – | 1.24 | 11.8 | 1.46 | B3 |
| – | – | 1.95 | 29.6 | 1.88 | B4 |
| – | – | 1.72 | 11.2 | 1.73 | B5 |
| – | – | – | 8.27 | 2.54 | B6 |
| – | – | – | 5.73 | 2.49 | B7 |
| – | – | – | 6.17 | 2.53 | B8 |
| – | – | – | 26.5 | 1.73 | B9 |
| – | – | – | 8.91 | 1.24 | B10 |
| – | – | – | 7.7 | 1.31 | B11 |
| – | – | – | 8 | 1.34 | B12 |
| – | – | – | 8.35 | 1.77 | B13 |
| – | – | – | 29.6 | 1.54 | B14 |
| – | – | – | 37.5 | 1.17 | B15 |
